In all, about 33,000 sequences were measured (“E-score (-0.5 to 0.5)”: median about -0.011, highest 2% from about 0.28 on). This is one part of the list.
The sequences below were run against T1, Gcr1 (UniProt P07261) (assay: PBM E-score (8-mer binding enrichment) (E-score (-0.5 to 0.5)); higher = stronger / more preferred TF binding; most listed sequences are background and not binding sites). Details: protein concentration: 100 nM; construct: GST-full length.
T1 sequence: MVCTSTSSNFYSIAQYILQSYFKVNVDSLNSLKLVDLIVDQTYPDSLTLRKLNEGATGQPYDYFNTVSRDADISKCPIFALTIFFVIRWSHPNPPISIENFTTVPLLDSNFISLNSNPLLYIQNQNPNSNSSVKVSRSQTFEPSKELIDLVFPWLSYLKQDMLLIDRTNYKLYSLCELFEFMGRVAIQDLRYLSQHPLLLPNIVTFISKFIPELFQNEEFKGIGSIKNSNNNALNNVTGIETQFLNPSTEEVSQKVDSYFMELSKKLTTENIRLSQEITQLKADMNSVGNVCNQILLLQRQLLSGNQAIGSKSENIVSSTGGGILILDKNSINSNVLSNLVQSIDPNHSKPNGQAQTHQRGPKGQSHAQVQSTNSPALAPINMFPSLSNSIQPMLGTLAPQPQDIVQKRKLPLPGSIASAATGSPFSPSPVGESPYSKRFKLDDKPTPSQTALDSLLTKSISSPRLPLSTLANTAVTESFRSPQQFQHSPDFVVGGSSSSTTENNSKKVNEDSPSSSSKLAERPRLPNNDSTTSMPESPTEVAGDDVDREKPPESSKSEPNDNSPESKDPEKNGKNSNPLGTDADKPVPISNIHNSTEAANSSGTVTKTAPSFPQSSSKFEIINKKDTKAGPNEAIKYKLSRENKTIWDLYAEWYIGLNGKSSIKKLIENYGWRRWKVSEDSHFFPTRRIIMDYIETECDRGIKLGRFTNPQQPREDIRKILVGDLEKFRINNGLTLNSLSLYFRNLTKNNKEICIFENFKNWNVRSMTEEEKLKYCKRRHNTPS
Procedure: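 Universal 'all 10-mer' protein binding microarrays (Agilent AMADID 015681) probed with GST-tagged S. cerevisiae TFs (full-length or DBD) made by in vitro transcription/translation (PURExpress), about 100-200 nM. Bound TF was detected with fluorescent anti-GST. Each ungapped 8-mer (which stands for itself and its reverse complement) is scored by the PBM enrichment score (E-score), a modified Wilcoxon-Mann-Whitney statistic from -0.5 to +0.5, computed with the Universal PBM Analysis Suite. Scale: above 0.35 generally sequence-specific binding.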

Which “PBM E-score” value does the source give for AAGCGAGG here?
The value was 0.127.

For AGACAGAG, which “PBM E-score” value is on record?
The value was -0.131.

How did the “PBM E-score” value turn out when ATGCAGCC was run?
Its value is -0.0977.

CGGAATGA was tested. Which “PBM E-score” value did it give?
Its value is -0.0542.

Which “PBM E-score” value does the source give for CAAAACCG here?
The value was -0.117.

With GATCGAGA as the sequence, how does the “PBM E-score” value read?
Its value is -0.207.

With TACCACGA as the sequence, how does the “PBM E-score” value read?
The value was -0.0214.

With CGAAGCTC as the sequence, how does the “PBM E-score” value read?
Its value is 0.118.

GGACTCGA was tested. Which “PBM E-score” value did it give?
The value was 0.0404.

For ATTGCGCA, which “PBM E-score” value is on record?
Its value is -0.14.

ATTGGTTC was tested. Which “PBM E-score” value did it give?
Its value is 0.189.

For ATACGGTC, which “PBM E-score” value is on record?
Its value is -0.134.

With GAATGCTA as the sequence, how does the “PBM E-score” value read?
The value was -0.121.

CCTTCATC was tested. Which “PBM E-score” value did it give?
Its value is -0.13.

With GGTATAAA as the sequence, how does the “PBM E-score” value read?
The value was 0.0226.

TAACATAA was tested. Which “PBM E-score” value did it give?
The value was 0.0865.

Which “PBM E-score” value does the source give for GACCGCTA here?
Its value is 0.0356.

For ATTCTGTG, which “PBM E-score” value is on record?
The value was 0.0737.

Which “PBM E-score” value does the source give for GCCATTCC here?
The value was -0.0224.

For ACACCACC, which “PBM E-score” value is on record?
Its value is -0.0253.

With GGCTTCTA as the sequence, how does the “PBM E-score” value read?
Its value is 0.297.

Which “PBM E-score” value does the source give for AGGCGCAG here?
The value was 0.157.

Which “PBM E-score” value does the source give for TGCTCTAA here?
Its value is -0.0393.

How did the “PBM E-score” value turn out when GATATATA was run?
The value was 0.0599.

With CGCTATGC as the sequence, how does the “PBM E-score” value read?
Its value is -0.0477.

For CAGTCTAC, which “PBM E-score” value is on record?
Its value is -0.0756.

How did the “PBM E-score” value turn out when ACTACTTC was run?
Its value is -0.00304.

With AGGGAAAT as the sequence, how does the “PBM E-score” value read?
The value was -0.173.

With CGGCAACC as the sequence, how does the “PBM E-score” value read?
The value was 0.29.

AACGCCAA was tested. Which “PBM E-score” value did it give?
The value was -0.0477.

For GAGTGATA, which “PBM E-score” value is on record?
The value was -0.122.

AGAAGGAG was tested. Which “PBM E-score” value did it give?
The value was 0.0188.

With ATGGCCGG as the sequence, how does the “PBM E-score” value read?
The value was -0.108.

CCCGCTCA was tested. Which “PBM E-score” value did it give?
Its value is -0.133.

Which “PBM E-score” value does the source give for AGAACCAA here?
Its value is 0.085.

Which “PBM E-score” value does the source give for ACCCAATC here?
The value was 0.0645.

How did the “PBM E-score” value turn out when CTGGGCGC was run?
Its value is 0.188.

Which “PBM E-score” value does the source give for AGGATTGA here?
The value was 0.106.

With CAATTGGG as the sequence, how does the “PBM E-score” value read?
The value was -0.0107.

Which “PBM E-score” value does the source give for AGCAATCG here?
Its value is -0.0942.

With GACTGGCA as the sequence, how does the “PBM E-score” value read?
The value was -0.0492.

How did the “PBM E-score” value turn out when ATCTTGTC was run?
Its value is 0.0474.

Which “PBM E-score” value does the source give for CGCATGGA here?
Its value is -0.081.

CATTATGG was tested. Which “PBM E-score” value did it give?
Its value is 0.0489.

With CCTTCGCG as the sequence, how does the “PBM E-score” value read?
The value was 0.0246.

For CTCTCTGA, which “PBM E-score” value is on record?
The value was -0.0303.

For CTAACCGA, which “PBM E-score” value is on record?
The value was -0.194.

CATTGTTA was tested. Which “PBM E-score” value did it give?
Its value is 0.0221.

With ATGTGGCC as the sequence, how does the “PBM E-score” value read?
Its value is -0.0967.

AGTGTGGC was tested. Which “PBM E-score” value did it give?
The value was 0.108.

With GGAACCCA as the sequence, how does the “PBM E-score” value read?
The value was 0.394.

For CATTCCAG, which “PBM E-score” value is on record?
Its value is 0.0871.

CACAAGTC was tested. Which “PBM E-score” value did it give?
The value was -0.0789.

With GGCCTGGA as the sequence, how does the “PBM E-score” value read?
Its value is -0.148.

ATGCTCGA was tested. Which “PBM E-score” value did it give?
The value was 0.0688.

With ATGATAAT as the sequence, how does the “PBM E-score” value read?
Its value is -0.0923.

For CCGTCCCA, which “PBM E-score” value is on record?
The value was 0.0146.

Which “PBM E-score” value does the source give for AGTGTCCC here?
Its value is -0.0758.

Which “PBM E-score” value does the source give for ATCAGGTC here?
The value was -0.062.

With GCTCATAA as the sequence, how does the “PBM E-score” value read?
The value was -0.0403.

With AATAATCG as the sequence, how does the “PBM E-score” value read?
The value was 0.186.

With AAAGTGGC as the sequence, how does the “PBM E-score” value read?
The value was 0.295.

GATGGGTA was tested. Which “PBM E-score” value did it give?
Its value is 0.0154.

Which “PBM E-score” value does the source give for ACCGGTAG here?
The value was 0.141.

How did the “PBM E-score” value turn out when AAACATGA was run?
The value was 0.0477.

Which “PBM E-score” value does the source give for TCTCTTAA here?
Its value is -0.123.

For GGGCCATA, which “PBM E-score” value is on record?
Its value is 0.165.

With CTTCGCAA as the sequence, how does the “PBM E-score” value read?
The value was 0.159.

TATAGCGA was tested. Which “PBM E-score” value did it give?
Its value is -0.147.

For ACGGATAC, which “PBM E-score” value is on record?
Its value is 0.14.

With CACCAGCC as the sequence, how does the “PBM E-score” value read?
Its value is 0.0514.

CTTTGACA was tested. Which “PBM E-score” value did it give?
The value was -0.0963.

For CTTGGCCA, which “PBM E-score” value is on record?
The value was -0.0769.

How did the “PBM E-score” value turn out when CGGGTAGC was run?
Its value is 0.0251.

For ATATAGCC, which “PBM E-score” value is on record?
The value was 0.011.

For CTTGGCAC, which “PBM E-score” value is on record?
Its value is 0.187.

Which “PBM E-score” value does the source give for GCCAGAAC here?
Its value is 0.00095.

For ACGTTTGA, which “PBM E-score” value is on record?
The value was -0.0706.

AGTTATAG was tested. Which “PBM E-score” value did it give?
The value was -0.0406.

For ATTACCTA, which “PBM E-score” value is on record?
The value was -0.0146.

For AGCTCGAC, which “PBM E-score” value is on record?
Its value is 0.027.

Which “PBM E-score” value does the source give for CCCAGGCC here?
Its value is -0.126.

How did the “PBM E-score” value turn out when CGGTTGTC was run?
The value was -0.149.

Which “PBM E-score” value does the source give for GCGACTAA here?
The value was 0.0904.

For ATATCTAC, which “PBM E-score” value is on record?
The value was -0.176.

For GCCTGTAA, which “PBM E-score” value is on record?
The value was 0.109.

ATCTTCCA was tested. Which “PBM E-score” value did it give?
Its value is 0.137.

With ACCGCGGA as the sequence, how does the “PBM E-score” value read?
The value was -0.0696.

With ACTACCAA as the sequence, how does the “PBM E-score” value read?
Its value is 0.0195.

Which “PBM E-score” value does the source give for AGATAACC here?
The value was 0.0498.

AGTGAGAG was tested. Which “PBM E-score” value did it give?
The value was -0.256.

For CAGAGACG, which “PBM E-score” value is on record?
Its value is 0.0567.

For GCCCAGCA, which “PBM E-score” value is on record?
The value was -0.0906.

Which “PBM E-score” value does the source give for CGTTGACA here?
The value was -0.307.

GAAAGAAC was tested. Which “PBM E-score” value did it give?
The value was -0.0712.

ACGGGGAC was tested. Which “PBM E-score” value did it give?
The value was 0.0874.

With AGCTTTAC as the sequence, how does the “PBM E-score” value read?
Its value is -0.194.

With AGGAAGAA as the sequence, how does the “PBM E-score” value read?
The value was -0.162.

With ATCTTAGG as the sequence, how does the “PBM E-score” value read?
Its value is 0.242.

With AACCTCGT as the sequence, how does the “PBM E-score” value read?
The value was -0.00914.

AGACTAGG was tested. Which “PBM E-score” value did it give?
Its value is 0.036.

For CGGATAGA, which “PBM E-score” value is on record?
The value was -0.158.

How did the “PBM E-score” value turn out when ATCAGATA was run?
Its value is -0.111.

How did the “PBM E-score” value turn out when GTGGTGGA was run?
Its value is 0.24.

How did the “PBM E-score” value turn out when CCCACAGA was run?
Its value is -0.0146.

CGATTAGA was tested. Which “PBM E-score” value did it give?
The value was 0.0902.

Which “PBM E-score” value does the source give for GGTACCTA here?
The value was 0.123.

For CGTACTAA, which “PBM E-score” value is on record?
Its value is -0.00353.

How did the “PBM E-score” value turn out when AGTGGGCG was run?
The value was 0.21.

From the supplement of paper PMC3334620
